This note sets out measurements from the supplement of paper PMC11417369.

± gives the standard deviation of the averaged measurements. The list shows a part of the results.

In the experiment the test system is PfAP2-G AP2 domain (GST-tagged). As to the kind of experiment: gcPBM binding intensity (ln(normalized median fluorescence intensity)); higher = stronger DNA binding. The procedure, abridged: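 GST-tagged P. falciparum DNA-binding domains produced in E. coli were incubated for 1 h on an Agilent 4 × 180k array of primer-extended double-stranded 36-bp intergenic genomic probes with negative controls. Binding intensity is the highest Masliner-normalised natural-log median intensity across replicate spots of either probe orientation, with bound protein detected by Alexa488 anti-GST antibody at 488 nm.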
On to “TATACATATTTCTATTGTACATAAACTAAATCTTCA [XGTACX_site28]”, for which the “gcPBM binding intensity (ln)” value stood at 10.8 ± 0.49.
The value for ACAATAAATATGTGGTTGCACTTATAATATATTTAT was 10.2 ± 0.085.
With “TACAATTGTAAAGGCGCACACATATATATATATATA [CACACA_site1392]” the figure was 10.5 ± 0.35.
With “GATATTATTGCATATTTACACACGTACTAATTTAAA [CACACA_site8231]” the figure was 11 ± 0.63; with “TTTTTATAATAAAAAAATATAACTATATTAAGCCAC [CACACA_negctrl_site555]”, 10.1 ± 0.2; with “AAGAACTCATTAATAATGTAATATTTTATAATTTAG [CACACA_negctrl_site321]”, 9.505 ± 0.049.
With ATAATAAAACTCAAAGTGCATTAGAATAATTGTAAA, the “gcPBM binding intensity (ln)” value amounted to 9.78 ± 0.2.
“ATTCATAAATATATTTGTACATATTATATATAAATA [XGTACX_site1907]”: the “gcPBM binding intensity (ln)” value is 10.9 ± 0.53.
With “CATACATACAGACACACACACATATTTATATTTATA [CACACA_site6172]” the figure was 10.2 ± 0.2; with “TCCCTTAATTTTGTGTGTACATATAATATATTTTTA [XGTACX_site2789]”, 11.5 ± 0.78; with “GTTAATTATTAAATTTGTACTCATATATATTATATA [XGTACX_site6862]”, 11.3 ± 0.88.
For “TATTTTTATCAATTCACACATAAATATATTTATATG [CACACA_site5547]”, the “gcPBM binding intensity (ln)” value amounted to 10.12 ± 0.064.
Turning to “CACAGTGATATAAAAACACACATGAATTAAAATTTC [CACACA_site4999]”, the “gcPBM binding intensity (ln)” value was 9.855 ± 0.078.
Consider “AATTAATAAGAAAGGTGTACAGAAAAAAAAAAATAT [XGTACX_site2106]”, for which the “gcPBM binding intensity (ln)” value was found to be 11.5 ± 0.8.
The value for “GGAATAGTGATATATACACACAAATACATATTTATA [CACACA_site6183]” was 10 ± 0.014; that for “TTCTTAATTTAAAATTGTACTTAAGTAATACTTATG [XGTACX_site3928]” was 11.2 ± 0.5; that for “GAAGTTTTTTAAAGATGTACTTTTTAAAAATAATGT [XGTACX_site1975]” was 11.5 ± 0.72.
With “TTATTTACTTATTGCACACATATAAAATATATTTAT [CACACA_site3101]” the figure was 10.7 ± 0.6; with “AAAAAAAAAAAAAATACACACATATATAAATAAATA [CACACA_site6459]”, 9.91 ± 0.19; with AATATATAGGAAAAAGTGCAATAAATGAACAAAATA, 10.2 ± 0.071.
Regarding “TTTAATAAAATTCTAGTGCAAAAAGGAAAAAACAAA [GTGCAC_site9642]”, the “gcPBM binding intensity (ln)” value was determined as 10.1 ± 0.33.
With “AAAAGAAATGACAAATTGGATAGATAATAGGGGGTA [GTGCAC_negctrl_site262]” the figure was 10.5 ± 0.21; with “AATTTTGATATATATTGTACGCATTTTTAAATGCCA [XGTACX_site7694]”, 11.5 ± 1.1.
With “TATATATATATATATGTGCACTGAAAGAATTATACA [GTGCAC_site9586]” the figure was 10.6 ± 0.62; with “ATATATATAGAAATATGTACGAAAAAAATATCACAT [XGTACX_site746]”, 10.9 ± 0.59; with “TATTTATTTTATATATGTACATAATATATTCTTATA [XGTACX_site1619]”, 11.2 ± 0.69.
With “GCTCAATTTTTGGGTACACACAAATGTATAAGAATA [CACACA_site7178]”, the “gcPBM binding intensity (ln)” value amounted to 11.5 ± 0.91.
With “TTTTTCTAATTATGCACACATATCAAAATATTCAAT [CACACA_site2749]” the figure was 10.2 ± 0.25; with “TGTTCTATGGTTTGTAGTACTTTAATAAATATAAAT [XGTACX_site7823]”, 11.4 ± 0.92.
For the sequence “AAAATCAAAAAAACAAGTACAAATGTGGACTTTTTT [XGTACX_site5363]”, the “gcPBM binding intensity (ln)” value worked out at 11.5 ± 0.86.
With “AATAAGCTCACGTGTCGTACATTTTTTAAAACAACC [XGTACX_site4707]”, the “gcPBM binding intensity (ln)” value turned out to be 11.3 ± 0.74.
With “TCAAAAAAAAAAAAAAAAAAAAAAAAAAAAAAAAAA [CACACA_negctrl_site1753]”, the “gcPBM binding intensity (ln)” value worked out at 9.71 ± 0.071.
With “ATATAAATGAATATATGTACATATATATATATATAT [XGTACX_site6361]” the figure was 11.2 ± 0.52; with “TTTTTTTTTTTTTGGTGTACCATAGGTAAAATGATT [XGTACX_site8020]”, 11.1 ± 0.84.
The value for “ATTTATGGAAAAAGAACACACAATCAAACAAAAATA [CACACA_site3707]” was 10.3 ± 0.27; that for “ATGCTATAGGATCTTACACACATTTTTGTAAAAAAA [CACACA_site1868]” was 10.02 ± 0.071; that for “TGACCTGTTCAGGTAACACACATATAAACCCATACA [CACACA_site31]” was 10.4 ± 0.25.
For “CATTTACCCTTATTAACACACAAAATATAATACGCT [CACACA_site2565]”, the “gcPBM binding intensity (ln)” value is 10.2 ± 0.23.
Regarding “CAAAATATAGATGACACACACAAAAAAAGTATATTA [CACACA_site6848]”, the “gcPBM binding intensity (ln)” value amounted to 10.14 ± 0.042.
Regarding “AGATAAAAAAAGTACACACACACATATATATATATA [CACACA_site3072]”, the “gcPBM binding intensity (ln)” value was 11.6 ± 0.93.
With “AAGCTTCCTTAATATACACACATATCTGAGTATATT [CACACA_site5939]” the figure was 9.965 ± 0.007.
In the case of “AAAAAAAAAAAAAAAAAAAAATTTCAATTATATTGA [GTGCAC_negctrl_site642]”, the “gcPBM binding intensity (ln)” value came to 10.8 ± 0.52.
On to “TTTTTTTTTGCCTACTGTACTATTTTTGAGCTCACC [XGTACX_site7967]”, for which the “gcPBM binding intensity (ln)” value stood at 11.5 ± 0.95.
The value for “ATAGAAAGTGACAATTGTACATACATATTATATATA [XGTACX_site4390]” was 10.9 ± 0.43.
With “TTCTTGGAATACAAGTGTACTTTATTATTATTATTA [XGTACX_site5997]” the figure was 11.3 ± 0.88.
